In PubChem BioAssay AID881 (National Center for Advancing Translational Sciences (NCATS), 2007):
Among all 110,000 compounds or so, about 610 (0.55%) were called active. The shares of active, inactive and inconclusive entries below differ from those in the screen. Calls follow the shape of the dose curve; as a rule, active = well fitted inhibition curve with a large enough effect; inconclusive = small, poorly fitted or top-dose-only effect; inactive = no such curve, though single readings can be large or run the other way. Potencies of inconclusive entries are doubtful fits and often do not repeat.
Also: nearly all actives have a fitted effect of over 60% in size.
Potency is read from the fitted curve at half-maximal effect; tags tell the direction and shape of the fitted curve.

What follows are compounds tested against Polyunsaturated fatty acid lipoxygenase ALOX15B (Homo sapiens) (UniProt O15296) (assay: qHTS Assay for Inhibitors of 15-hLO-2 (15-human lipoxygenase 2)). Details: purified 15hLO-2, xylenol orange hydroperoxide absorbance; series mostly up to 57.1 µM.
UniProt O15296, sequence (O15296 whole entry, looked up): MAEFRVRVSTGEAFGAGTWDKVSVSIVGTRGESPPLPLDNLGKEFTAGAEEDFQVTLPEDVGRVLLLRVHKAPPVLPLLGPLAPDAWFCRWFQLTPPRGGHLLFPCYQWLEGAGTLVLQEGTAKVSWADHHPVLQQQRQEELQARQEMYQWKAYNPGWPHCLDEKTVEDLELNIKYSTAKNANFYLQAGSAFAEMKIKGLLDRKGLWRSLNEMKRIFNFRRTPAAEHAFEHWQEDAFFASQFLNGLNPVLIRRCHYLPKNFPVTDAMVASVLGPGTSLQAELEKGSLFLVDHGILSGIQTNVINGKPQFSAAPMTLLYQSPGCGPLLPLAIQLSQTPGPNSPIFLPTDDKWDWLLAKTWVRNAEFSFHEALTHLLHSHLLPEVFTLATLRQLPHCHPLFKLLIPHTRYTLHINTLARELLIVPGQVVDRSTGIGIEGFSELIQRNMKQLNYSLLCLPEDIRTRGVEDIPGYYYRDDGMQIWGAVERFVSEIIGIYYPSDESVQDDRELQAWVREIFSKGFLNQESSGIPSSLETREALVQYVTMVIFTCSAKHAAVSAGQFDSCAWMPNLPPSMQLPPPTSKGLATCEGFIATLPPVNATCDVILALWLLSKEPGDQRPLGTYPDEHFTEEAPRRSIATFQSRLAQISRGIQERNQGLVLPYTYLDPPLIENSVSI
From the text: Assay Overview: NIH Molecular Libraries Screening Centers Network [MLSCN] NIH Chemical Genomics Center [NCGC] MLSCN Grant: MH081283-01A1 PI Name: Holman, T.R., University of California, Santa Cruz Human lipoxygenase 15hLO-2 is a member of the closely related lipoxygenase family of enzymes which catalyze the site-specific oxidation of arachidonic acid to various hormone precursor molecules and as such is a candidate for drug development in a variety of disease areas, such as cancer and inflammation. Inhibition of 15hLO-2 activity was screened by utilizing arachidonic acid as a substrate. The extent of hydroperoxide product formation was measured by a secondary chromogenic reaction in which xylenol orange (XO, Sigma-Aldrich, cat. number 39,818-7) reacts with the ferric ions produced from the reaction between the hydroperoxide and ferrous ions. The Fe(III)-XO complex is characterized with red-shifted absorbance at 560 nm. A purified preparation of human 15hLO-2 was supplied by Professor Ted Holman, University of California, Santa Cruz.
Assay Protocol: Buffer: 25 mM Hepes pH 7.5, 0.01% Triton X-100. Reagents/Controls: Buffer in columns 3 and 4 as negative control (no enzyme). Substrate solution: 45 uM arachidonic acid (Sigma-Aldrich, St. Louis, MO) final concentration dispensed throughout the plate. Enzyme: 50 nM 15hLO-2 final concentration in columns 1, 2, 5-48. Column 1 is neutral (100% activity). Column 2 contained pin-transferred titration of NDGA (nordihidroguaiaretic acid, Sigma-Aldrich, N 5023, top concentration 10 mM in DMSO, then 1:2 dilution in duplicate). (Dilution factor: 23 nL into 4 uL.) Chromogenic detection reagent (divalent iron/xylenol orange, Fe-XO): 200 uM xylenol orange plus 300 uM ferrous ammonium sulfate prepared freshly in 50 mM sulfuric acid. Assay Steps: Three uL of enzyme were dispensed to 1536-well Greiner black clear bottom plates. Compounds and controls (23 nL) were transferred via Kalypsys PinTool. The plates were incubated for 15 min at room temperature, and then 1 uL of substrate solution was added to start the reaction. After room temperature incubation for 90 minutes, 4 uL of Fe-XO solution was added to each well followed by a short spin (1000 rpm, 15 sec) and the plates were then incubated for 30 min. The absorbance at 405 and 573 nm were measured using ViewLux (Perkin-Elmer) High-throughput CCD imager and absorbance protocol settings. The 573-to-405 absorbance ratio was used to compute reaction progress.
With Cc1ccc2cc3cc(C(=O)NCc4ccco4)oc3nc2c1 the Potency was inconclusive: 31.6 µM [inhibitor, single point]. S=C(c1ccc(-c2ccccc2Cl)o1)N1CCOCC1 was tested, and the Potency was inconclusive: 15.8 µM [inhibitor, partial curve]. In the case of Cc1cccc(-c2cc(C(=O)NCCCn3ccnc3)c3ccccc3n2)c1, the Potency is reported as “inactive”. COc1ccc(NC(=O)c2cc(-c3ccc(C)o3)nc3ccccc23)cc1OC was tested, and the Potency was inconclusive: 31.6 µM [inhibitor, single point]. In the case of O=C(c1ccc(Cl)cc1)c1oc2ccccc2c1CS(=O)c1ccccc1 (centres undefined), the Potency is reported as inconclusive: 15.8 µM [inhibitor, partial curve]. N#C[C@@H](Cc1ccc(O)c(O)c1)C(=O)N1CCc2ccccc21 was tested, and the Potency was inconclusive: 12.6 µM [inhibitor, partial curve]. With FC(F)(F)c1cc(-c2ccco2)nc(NCc2cccs2)n1 the Potency was inconclusive: 0.126 µM [inhibitor, full curve]. In the case of COc1cccc(CSc2nc3ccccc3cc2C=O)c1, the Potency is reported as inconclusive: 31.6 µM [inhibitor, single point]. Cc1ccccc1N/N=C1\CCCNC1=O was tested, and the Potency was inconclusive: 3.98 µM [inhibitor, partial curve]. CCC(=O)N(C)/C=C1\Sc2ccccc2C1=O was tested, and the Potency was inconclusive: 25.1 µM [inhibitor, single point]. In the case of O=C(O)Cc1ccc(C(=O)c2ccccc2F)s1, the Potency is reported as “inactive”. For COc1ccc2c(c1)Cc1sc(NC(C)=O)nc1-2, the Potency was inconclusive: 31.6 µM [inhibitor, single point]. With COC(=O)c1ccc(C2c3c(oc4ccccc4c3=O)C(=O)N2CCCN2CCOCC2)cc1 (centres undefined) the Potency was inconclusive: 25.1 µM [inhibitor, single point]. With Cn1c(C(=O)NCCc2c[nH]c3ccccc23)cc2sccc21 the Potency was “inactive”. For CCOC(=O)c1c(C)[nH]c(C(=O)COC(=O)c2ccccc2NC(=O)c2ccco2)c1C, the Potency was inconclusive: 0.158 µM [inhibitor, full curve, poor fit]. For COc1ccc(-c2coc3cc4oc(=O)cc(C)c4cc23)cc1F, the Potency was inconclusive: 31.6 µM [inhibitor, single point]. CC(=O)N1CCN(c2ccc([N+](=O)[O-])c(NCC3CCCO3)c2)CC1 (centres undefined) was tested, and the Potency was inconclusive: 20 µM [inhibitor, partial curve]. COc1ccc2ccccc2c1C1CC(=O)N2CN(Cc3ccco3)CSC2=C1C#N (centres undefined) was tested, and the Potency was active: 12.6 µM. In the case of CCOC(=O)c1c(C)[nH]c2c1cc(O)c1ccccc12, the Potency is reported as inconclusive: 5.01 µM [inhibitor, partial curve, poor fit].
